According to article doi:10.1101/2025.01.14.633037:
These are yes or no findings as the source states them, for the method shown. For part of these data: Binding seen in cells or lysates may run through a third protein. Some entries that bind do so weakly or less than the wild type. Tags and fused reporters may be left off the sequences shown. Blank lines part the entries; values can stand above or below the binder they belong to.

How the values were obtained:
(YA)20 fused to mEos3.1 = assay: FRET or BRET; DAmFRET: mEos3.1 fusions expressed in S. cerevisiae, galactose induction 20 hr with 100 uM MG132, partial photoconversion of mEos3.1, flow cytometry; AmFRET between copies of the same protein against its intracellular concentration (approximately 2 to 200 uM)
[1] = biological target: poly-YA with 10 repeats fused to mEos3.1; assay: as above
[2] = biological target: poly-TA with 10 repeats fused to mEos3.1; assay: as above
(GA)20 fused to mEos3.1 = assay: as above
(TA)20 fused to mEos3.1 [3] = assay: SDD-AGE; semidenaturing detergent-agarose gel electrophoresis of yeast lysates, 0.1% sarkosyl, mEos3.1 fluorescence imaged in the gel
(TA)20 fused to mEos3.1 [4] = assay: FRET or BRET; DAmFRET: mEos3.1 fusions expressed in S. cerevisiae, galactose induction 20 hr with 100 uM MG132, partial photoconversion of mEos3.1, flow cytometry; AmFRET between copies of the same protein against its intracellular concentration (approximately 2 to 200 uM)

Binder: YAYAYAYAYAYAYAYAYAYAYAYAYAYAYAYAYAYAYAYA [(YA)20 fused to mEos3.1]
binding ((YA)20 fused to mEos3.1): binds

Binder: GAGAGAGAGAGAGAGAGAGAGAGAGAGAGAGAGAGAGAGA [(GA)20 fused to mEos3.1]
binding ((GA)20 fused to mEos3.1): no binding (tested: range probed approximately 2 to 200 μM)

Binder: TATATATATATATATATATATATATATATATATATATATA [(TA)20 fused to mEos3.1]
binding ((TA)20 fused to mEos3.1 [3]): binds | binding ((TA)20 fused to mEos3.1 [4]): binds

Results, then the binder that gave them:

binding [1]: binds
Binder: YAYAYAYAYAYAYAYAYAYA [poly-YA with 10 repeats fused to mEos3.1]

binding [2]: binds
Binder: TATATATATATATATATATA [poly-TA with 10 repeats fused to mEos3.1]
